In the supplement of paper PMC4604168 (melanoma cell lines) one finds cell count data, which are given here for 18 compounds.

Some of the results follow. Repeats are few or missing, and single values can be far off.
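Note: cells treated in 1,536-well plates, then fixed and DAPI-stained, with nuclei counted from automated high-throughput microscope images.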

The test has as its system COLO792. The test can be described thus: cell count relative to DMSO control; melanoma cells; higher = more viable cells. As to conditions: library dose: standard library concentration; 72 h; first compound 2 µM.
Regarding `Cn1sc(=O)n(Cc2ccccc2)c1=O` + C=CCn1c(=O)c2cnc(Nc3ccc(N4CCN(C)CC4)cc3)nc2n1-c1cccc(C(C)(C)O)n1 [MK1775] (partner dose 0.1 µM), the cell count was 82.8%.
The figure for `C[C@@H](N)c1ccc(C(=O)Nc2ccnc3[nH]ccc23)cc1` + CCN(CC)CCNC(=O)c1c(C)[nH]c(/C=C2\C(=O)Nc3ccc(F)cc32)c1C [sunitinib] (partner dose 2 µM) is 47.4%.
The figure for `CCCCCCCCCCCCCCCCCCOP(=O)([O-])OC1CC[N+](C)(C)CC1` [Perifosine] + Cn1cc(/C=C2\C(=O)Nc3cccnc32)c2ccccc21 [GW441756] (partner dose 2 µM) is 62%.
The result for `Cn1sc(=O)n(Cc2ccccc2)c1=O` + COc1cc2ncnc(Nc3ccc(Oc4ccccc4)cc3)c2cc1OC [SrcI1] (partner dose 10 µM) reads 75%; that for `Cn1sc(=O)n(Cc2ccccc2)c1=O` + O=C(O)[C@@H]1[O][Sb](=[O])([O][Sb]2(=[O])[O][C@H]([C@H](O)CO)[C@H](O)[C@H](C(=O)O)[O]2)[O][C@H]([C@H](O)CO)[C@@H]1O [stibogluconate] (partner dose 10 µM), 70%; that for `C[C@@H](N)c1ccc(C(=O)Nc2ccnc3[nH]ccc23)cc1` + O=C(O)[C@@H]1[O][Sb](=[O])([O][Sb]2(=[O])[O][C@H]([C@H](O)CO)[C@H](O)[C@H](C(=O)O)[O]2)[O][C@H]([C@H](O)CO)[C@@H]1O [stibogluconate] (partner dose 10 µM), 92.9%.
Take `CCCCCCCCCCCCCCCCCCOP(=O)([O-])OC1CC[N+](C)(C)CC1` [Perifosine] + Cc1cc([N+](=O)[O-])ccc1NS(=O)(=O)c1cc(Cl)ccc1Cl [FH535] (partner dose 5 µM): the cell count is 64.9%.
The result for `Cn1sc(=O)n(Cc2ccccc2)c1=O` + CCc1ccc(CCOc2ccc(CC3SC(=O)NC3=O)cc2)nc1 [pioglitazone] (partner dose 10 µM) reads 86.4%.
Turning to `CCCCCCCCCCCCCCCCCCOP(=O)([O-])OC1CC[N+](C)(C)CC1` [Perifosine] + Oc1nc(-c2ccc(C(F)(F)F)cc2)nc2c1CSCC2 [XAV939] (partner dose 10 µM), the cell count is 78.4%.
The result for `CCCCCCCCCCCCCCCCCCOP(=O)([O-])OC1CC[N+](C)(C)CC1` [Perifosine] + Cc1ccc(Nc2nccc(N(C)c3ccc4c(C)n(C)nc4c3)n2)cc1S(N)(=O)=O [Pazopanib] (partner dose 2 µM) reads 84.2%; that for `CCCCCCCCCCCCCCCCCCOP(=O)([O-])OC1CC[N+](C)(C)CC1` [Perifosine] + c1cc(-c2cnn3cc(-c4ccc(OCCN5CCCCC5)cc4)cnc23)ccn1 [Dorsomorphin] (partner dose 2 µM), 90.1%.
The result for `C[C@@H](N)c1ccc(C(=O)Nc2ccnc3[nH]ccc23)cc1` + COc1cc2ncnc(Nc3ccc(Oc4ccccc4)cc3)c2cc1OC [SrcI1] (partner dose 10 µM) reads 57.8%; that for `C[C@@H](N)c1ccc(C(=O)Nc2ccnc3[nH]ccc23)cc1` + COCC[n+]1c2c(n(Cc3cnccn3)c1C)C(=O)c1ccccc1C2=O [YM155] (partner dose 0.002 µM), 60.6%; that for `CCCCCCCCCCCCCCCCCCOP(=O)([O-])OC1CC[N+](C)(C)CC1` [Perifosine] + O=c1cc(-c2cccc3c2Sc2ccccc2S3)oc(N2CCOCC2)c1 [KU55933] (partner dose 5 µM), 26.3%.
In turn, `C[C@@H](N)c1ccc(C(=O)Nc2ccnc3[nH]ccc23)cc1` + Cc1cc([N+](=O)[O-])ccc1NS(=O)(=O)c1cc(Cl)ccc1Cl [FH535] (partner dose 5 µM) yielded a cell count of 72.4%.
`CCCCCCCCCCCCCCCCCCOP(=O)([O-])OC1CC[N+](C)(C)CC1` [Perifosine] + CCN(CC)CCCCNc1ncc2cc(-c3cc(OC)cc(OC)c3)c(NC(=O)NC(C)(C)C)nc2n1 [PD173074] (partner dose 0.5 µM): the cell count is 87.7%.
The result for `C[C@@H](N)c1ccc(C(=O)Nc2ccnc3[nH]ccc23)cc1` + c1cc(-c2cnn3cc(-c4ccc(OCCN5CCCCC5)cc4)cnc23)ccn1 [Dorsomorphin] (partner dose 2 µM) reads 72.2%; that for `C[C@@H](N)c1ccc(C(=O)Nc2ccnc3[nH]ccc23)cc1` + Nc1nc(F)nc2c1ncn2[C@@H]1O[C@H](CO)[C@@H](O)[C@@H]1O [fludarabine] (partner dose 1 µM), 54.3%.
